{"source": "patent US20250134874A1", "about": "“PHARMACEUTICAL FORMULATIONS COMPRISING 3-({[(4R)-7-{METHYL[4-(PROPAN-2-YL)PHENYL]AMINO}-3,4-DIHYDRO-2H-1-BENZOPYRAN-4-YL]METHYL}AMINO)PYRIDINE-4-CARBOXYLIC ACID” (TACHYON THERAPEUTICS, INC., priority 2021, published 2025)", "test_system": "301 cancer cell lines from different tumor types (OncoPanel; HD Biosciences)", "assay": "2D cell viability inhibition assay (CellTiter-Glo) in cancer cell line panel", "assay_type": "cell-based", "conditions": "in %", "procedure": "In a larger screening study, compound 1 was evaluated across a broad cancer cell line panel (OncoPanel; HD Biosciences) composed of 301 cancer cell lines from different tumor types.\n2D cell viability inhibition assays were performed in multiwell plates seeded with cells from the panel. After seeding, the plates were cultured overnight in a humidified incubator at 37° C. to promote adherence. Assays were initiated in individual wells by adding either DMSO as a vehicle control, growth media as a blank, or serially diluted compound 1 (10 μM to 0.0005 μM with 1:3 serial dilution). Cultures were incubated for 168 hours after which the number of viable cells in each test well was assessed using the CellTiter-Glo® Luminescent Cell Viability Assay. Luminescence readouts were performed using an EnVision® Multilabel Reader and the compound 1 readouts were normalized to the DMSO control readouts, expressed as a percent of the control. Outliers were flagged out by visual inspection. Percent of control was plotted against the corresponding compound 1 concentration and the absolute IC50 value was determined using four-parameter logistic non-linear regression as the concentration where inhibition was 50% of the control. For maximum inhibition <50%, the absolute IC50 was reported as >10. In addition to EC50 and IC50, AUC was determined and was normalized to the area corresponding to theoretical no-inhibition (the rectangular area defined by the compound dose range and 0 to 100 in y). Emax was recorded as the minimum in y with the compound dose range. For those cell lines where Emax>40, EC50 was manually set to 10 μM. A hierarchical clustering algorithm based on Euclidean distance between the standardized input values and “Ward.D” method as implemented in R hclust function was used to visualize the compound 1 cellular potency data. The sensitive/moderate/resistant calls for each cell line was determined by visually inspecting the resulting clustering dendrogram. All the analyses were done in R Core Team.", "note": "The source gives many values for each of these; only a part stands here."}
{"smiles": "CC(C)c1ccc(N(C)c2ccc3c(c2)OCC[C@H]3CNc2cnccc2C(=O)O)cc1", "note": "[Compound 1, 3-({[(4R)-7-{methyl[4-(propan-2-yl)phenyl]amino}-3,4-dihydro-2H-1-benzopyran-4-yl]methyl}amino)pyridine-4-carboxylic acid]", "values": [{"measurement": "Emax", "setting": "NCIH441, lung, adenocarcinoma, 168 hours", "value": 67.49}, {"measurement": "Emax", "setting": "NCIH446 cell line", "value": 24.17}, {"measurement": "Emax", "setting": "NCIH520 cell line", "value": 10.58}, {"measurement": "Emax", "setting": "NCIH596, lung, mixed adenosquamous carcinoma, 168 hours", "value": 61.34}, {"measurement": "Emax", "setting": "NCIH929 cell line", "value": 24.32}, {"measurement": "Emax", "setting": "NCIH1048 cell line", "value": 7.15}, {"measurement": "Emax", "setting": "NCIH1155 cell line", "value": 0.2638}, {"measurement": "Emax", "setting": "NCIH1355 cell line", "value": 35.38}, {"measurement": "Emax", "setting": "NCIH1395, lung, adenocarcinoma, 168 hours", "value": 70.68}, {"measurement": "Emax", "setting": "NCIH1435, lung, non-small cell carcinoma, 168 hours", "value": 60.04}, {"measurement": "Emax", "setting": "NCIH1563, lung, adenocarcinoma, 168 hours", "value": 93.507}, {"measurement": "Emax", "setting": "NCIH1573, lung, adenocarcinoma, 168 hours", "value": 53.57}, {"measurement": "Emax", "setting": "NCIH1618 cell line", "value": 0.4886}, {"measurement": "Emax", "setting": "NCIH1623 cell line", "value": 30.06}, {"measurement": "Emax", "setting": "NCIH1650, lung, bronchioloalveolar adenocarcinoma, 168 hours", "value": 68.07}, {"measurement": "Emax", "setting": "NCIH1666 cell line", "value": 21.66}, {"measurement": "Emax", "setting": "NCIH1734 cell line", "value": 54.9}, {"measurement": "Emax", "setting": "NCIH1755, lung, adenocarcinoma, 168 hours", "value": 123.3293}, {"measurement": "Emax", "setting": "NCIH1836 cell line", "value": 10.41}, {"measurement": "Emax", "setting": "NCIH1838, lung, non-small cell carcinoma, 168 hours", "value": 60.0585}, {"measurement": "Emax", "setting": "NCIH1930 cell line", "value": 36.33}, {"measurement": "Emax", "setting": "NCIH1975 cell line", "value": 17.89}, {"measurement": "Emax", "setting": "NCIH2009, lung, adenocarcinoma, 168 hours", "value": 55.69}, {"measurement": "Emax", "setting": "NCIH2023 cell line", "value": 13.34}, {"measurement": "Emax", "setting": "NCIH2081 cell line", "value": 17.9809}, {"measurement": "Emax", "setting": "NCIH2087 cell line", "value": 21.98}, {"measurement": "Emax", "setting": "NCIH2122 cell line", "value": 18.7}, {"measurement": "Emax", "setting": "NCIH2171 cell line", "value": 16.53}, {"measurement": "Emax", "setting": "NCIH2172 cell line", "value": 37.97}, {"measurement": "Emax", "setting": "NCIH2228 cell line", "value": 44.27}, {"measurement": "Emax", "setting": "NCIH2286 cell line", "value": 11.2}, {"measurement": "Emax", "setting": "NCIN87 cell line", "value": 10.8}, {"measurement": "Emax", "setting": "NIHOVCAR3, ovary, NS, 168 hours", "value": 59.47}, {"measurement": "Emax", "setting": "NMCG1, central nervous system, NS, 168 hours", "value": 47.06}, {"measurement": "Emax", "setting": "NOMO1 cell line", "value": 8.172}, {"measurement": "Emax", "setting": "ONS76, central nervous system, NS, 168 hours", "value": 54.63}, {"measurement": "Emax", "setting": "OSRC2 cell line", "value": 52.3524}, {"measurement": "Emax", "setting": "OVISE cell line", "value": 41.61}, {"measurement": "Emax", "setting": "P31FUJ cell line", "value": 7.305}, {"measurement": "Emax", "setting": "PANC1 cell line", "value": 12.03}, {"measurement": "Emax", "setting": "PANC0213 cell line", "value": 32.945}, {"measurement": "Emax", "setting": "PECAPJ34CLONEC12 cell line", "value": 11.8}, {"measurement": "Emax", "setting": "PF382 cell line", "value": 8.405}, {"measurement": "Emax", "setting": "PLCPRF5 cell line", "value": 21.67}, {"measurement": "Emax", "setting": "RCM1 cell line", "value": 42.55}, {"measurement": "Emax", "setting": "REH cell line", "value": 0.2336}, {"measurement": "Emax", "setting": "RERFLCMS cell line", "value": 38.16}, {"measurement": "Emax", "setting": "RL cell line", "value": 1.954}, {"measurement": "Emax", "setting": "RPMI7951, skin, NS, 168 hours", "value": 66.31}, {"measurement": "Emax", "setting": "RT11284 cell line", "value": 18.2}, {"measurement": "Emax", "setting": "SAOS2, bone, NS, 168 hours", "value": 92.52}, {"measurement": "Emax", "setting": "SCC9, upper aerodigestive tract, squamous cell carcinoma, 168 hours", "value": 69.25}, {"measurement": "Emax", "setting": "SCC15, upper aerodigestive tract, squamous cell carcinoma, 168 hours", "value": 90.39}, {"measurement": "Emax", "setting": "SCC25, upper aerodigestive tract, squamous cell carcinoma, 168 hours", "value": 62.3079}, {"measurement": "Emax", "setting": "SKCO1 cell line", "value": 34.7288}, {"measurement": "Emax", "setting": "SKHEP1, liver, adenocarcinoma, 168 hours", "value": 44.3029}, {"measurement": "Emax", "setting": "SKLU1 cell line", "value": 38.28}, {"measurement": "Emax", "setting": "SKMEL2 cell line", "value": 35.37}, {"measurement": "Emax", "setting": "SKMEL3 cell line", "value": 46.9}, {"measurement": "Emax", "setting": "SKMEL24, skin, NS, 168 hours", "value": 58.12}, {"measurement": "Emax", "setting": "SKMEL28 cell line", "value": 4.92}, {"measurement": "Emax", "setting": "SKMEL31, skin, NS, 168 hours", "value": 59.49}, {"measurement": "Emax", "setting": "SKMES1 cell line", "value": 30.66}, {"measurement": "Emax", "setting": "SKNSH, autonomic ganglia, NS, 168 hours", "value": 53.89}, {"measurement": "Emax", "setting": "SKOV3, ovary, adenocarcinoma, 168 hours", "value": 96.03}, {"measurement": "Emax", "setting": "SNGM cell line", "value": 26.88}, {"measurement": "Emax", "setting": "SNU5 cell line", "value": 32.15}, {"measurement": "Emax", "setting": "SNU16 cell line", "value": 7.431}, {"measurement": "Emax", "setting": "SNU668 cell line", "value": 16.0231}, {"measurement": "Emax", "setting": "SNU761 cell line", "value": 38.07}, {"measurement": "Emax", "setting": "SNU878 cell line", "value": 52.15}, {"measurement": "Emax", "setting": "SNU886 cell line", "value": 48.35}, {"measurement": "Emax", "setting": "SNUC1, large intestine, adenocarcinoma, 168 hours", "value": 55.45}, {"measurement": "Emax", "setting": "SNUC2A cell line", "value": 34.42}, {"measurement": "Emax", "setting": "SUPT1 cell line", "value": 48.11}, {"measurement": "Emax", "setting": "SW48 cell line", "value": 37.9499}, {"measurement": "Emax", "setting": "SW579, thyroid, anaplastic carcinoma, 168 hours", "value": 79.98}, {"measurement": "Emax", "setting": "SW620 cell line", "value": 9.079}, {"measurement": "Emax", "setting": "SW837, large intestine, adenocarcinoma, 168 hours", "value": 46.73}, {"measurement": "Emax", "setting": "SW1271, lung, small cell carcinoma, 168 hours", "value": 65.38}, {"measurement": "Emax", "setting": "SW1417, large intestine, adenocarcinoma, 168 hours", "value": 91.96}, {"measurement": "Emax", "setting": "SW1710 cell line", "value": 25.48}, {"measurement": "Emax", "setting": "SW1990 cell line", "value": 49.23}, {"measurement": "Emax", "setting": "T24, urinary tract, transitional cell carcinoma, 168 hours", "value": 75.74}, {"measurement": "Emax", "setting": "T84 cell line", "value": 21.54}, {"measurement": "Emax", "setting": "TALL1 cell line", "value": 4.509}, {"measurement": "Emax", "setting": "TE1, oesophagus, squamous cell carcinoma, 168 hours", "value": 84.54}, {"measurement": "Emax", "setting": "TE8, oesophagus, squamous cell carcinoma, 168 hours", "value": 72.1307}, {"measurement": "Emax", "setting": "TE11 cell line", "value": 10.16}, {"measurement": "Emax", "setting": "TE14 cell line", "value": 12.67}, {"measurement": "Emax", "setting": "TE15, oesophagus, squamous cell carcinoma, 168 hours", "value": 89.04}, {"measurement": "Emax", "setting": "TF1 cell line", "value": 11.55}, {"measurement": "Emax", "setting": "THP1 cell line", "value": 12.48}, {"measurement": "Emax", "setting": "U937 cell line", "value": 1.946}, {"measurement": "Emax", "setting": "UACC812, breast, ductal carcinoma, 168 hours", "value": 62.67}, {"measurement": "Emax", "setting": "UMUC3 cell line", "value": 35.05}, {"measurement": "Emax", "setting": "VCAP, prostate, adenocarcinoma, 168 hours", "value": 62.6}, {"measurement": "Emax", "setting": "WM115 cell line", "value": 36.93}, {"measurement": "Emax", "setting": "WM2664 cell line", "value": 37.49}, {"measurement": "Emax", "setting": "WSUDLCL2 cell line", "value": 0.6346}, {"measurement": "Emax", "setting": "YD38 cell line", "value": 13.64}]}
